Measurements taken from publication PMC4336329 (PLoS ONE, 2015).
About 2,200 (0.71%) of roughly 310,000 compounds showed an effect of 50% or more. The effect is printed as a negative number. The list shows a part of the results.

Biological target: human ether-à-go-go-related gene (hERG) potassium channel (human, UniProt Q12809)
Test: primary screen, population patch clamp on CHO cells stably expressing hERG

Chain of human ether-à-go-go-related gene (hERG) potassium channel (Q12809 whole entry, looked up): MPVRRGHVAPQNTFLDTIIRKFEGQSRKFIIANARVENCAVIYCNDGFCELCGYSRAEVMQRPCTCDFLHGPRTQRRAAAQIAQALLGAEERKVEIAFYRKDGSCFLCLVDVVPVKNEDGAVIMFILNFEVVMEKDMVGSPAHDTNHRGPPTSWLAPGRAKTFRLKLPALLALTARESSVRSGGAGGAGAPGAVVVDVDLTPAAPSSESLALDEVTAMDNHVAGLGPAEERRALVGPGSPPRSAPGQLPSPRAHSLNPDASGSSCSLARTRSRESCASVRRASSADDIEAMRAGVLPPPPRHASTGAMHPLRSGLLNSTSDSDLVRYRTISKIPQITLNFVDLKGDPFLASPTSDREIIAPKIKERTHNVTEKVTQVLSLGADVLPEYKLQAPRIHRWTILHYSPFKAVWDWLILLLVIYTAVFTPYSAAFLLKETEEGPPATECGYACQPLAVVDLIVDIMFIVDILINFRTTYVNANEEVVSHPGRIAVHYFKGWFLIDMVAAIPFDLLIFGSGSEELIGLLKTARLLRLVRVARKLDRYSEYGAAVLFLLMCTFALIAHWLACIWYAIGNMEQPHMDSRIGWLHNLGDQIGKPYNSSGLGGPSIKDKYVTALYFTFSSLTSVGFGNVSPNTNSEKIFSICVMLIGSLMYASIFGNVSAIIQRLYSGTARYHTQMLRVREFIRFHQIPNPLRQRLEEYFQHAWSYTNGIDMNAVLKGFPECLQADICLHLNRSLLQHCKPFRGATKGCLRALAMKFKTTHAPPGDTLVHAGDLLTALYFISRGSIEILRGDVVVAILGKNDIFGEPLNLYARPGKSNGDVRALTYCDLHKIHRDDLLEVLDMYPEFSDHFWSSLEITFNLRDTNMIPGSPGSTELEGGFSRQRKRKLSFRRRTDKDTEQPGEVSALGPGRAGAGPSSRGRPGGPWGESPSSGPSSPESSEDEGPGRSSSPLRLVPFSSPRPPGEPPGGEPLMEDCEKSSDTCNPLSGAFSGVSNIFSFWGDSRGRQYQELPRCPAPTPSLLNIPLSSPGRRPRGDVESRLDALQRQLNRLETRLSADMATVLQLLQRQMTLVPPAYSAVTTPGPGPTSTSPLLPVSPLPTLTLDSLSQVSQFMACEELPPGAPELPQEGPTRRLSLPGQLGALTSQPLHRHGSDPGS

Compound	hERG current change (%, negative = inhibition) at 1uM
O=C(CSc1nc2ccc([N+](=O)[O-])cc2[nH]1)NC1CCCC1	12%
COc1ccc(S(=O)(=O)N2CCOCC2)cc1NC(=O)CN1C(=O)NC2(CCCC2)C1=O	11.3%
O=C(COC(=O)c1ccccc1C(=O)c1ccccc1)c1ccco1	0.754%
CCOC(=O)c1noc(C)c1C(=O)Nc1nc(C)cc(C)n1	8.53%
CCC(C)(C)n1nnnc1C(c1ccccn1)N1CCN(c2cccc(OC)c2)CC1 (stereo not shown)	8.27%
Cc1ccc(-c2cc(C(F)(F)F)n3nc(C(=O)N4CCN5CCCC5C4)cc3n2)cc1 (stereo not shown)	3.14%
CNc1ccncc1S(=O)(=O)NC	14.6%
CC1CC(C)CN(CCOCCSc2ccccc2)C1.O=C(O)C(=O)O (stereo not shown)	-6.56%
N#Cc1cc(-c2ccccc2)[nH]c1-c1nccc2ccccc12	9.74%
O=C(CSc1n[nH]c(-c2ccccc2F)n1)NCC(=O)Nc1ccc(F)c(F)c1F	9.22%
COc1ccc(S(=O)(=O)Nc2cccc(C)n2)c2ccccc12	6.1%
CCN(CC)C(=O)CSc1nc2sc3c(c2c(=O)n1-c1ccc(C)cc1)CC(C)(C)SC3	2.39%
COc1ccc(OC)c(NC(=O)CN2C(=O)C3(OCCCO3)c3ccccc32)c1	-2.6%
Cc1cc(OCC#N)nc(N)n1	5.77%
CCCOc1ccc(C(=O)NC(C)C(=O)O)cc1 (stereo not shown)	4.26%
Cc1ccc(N2C(=O)[C@@H]3C(C(=O)C(c4ccccc4)c4ccccc4)=NN[C@@H]3C2=O)cc1	8.01%
COc1cc(C#N)ccc1OC(=O)C1CCN(C(=O)c2ccc(F)cc2)CC1	-3.38%
COCCNC(=O)c1cc(-c2ccccn2)nc2ccc(S(=O)(=O)N3CCC(C)CC3)cc12	-10.9%
Cc1ccc(S(=O)(=O)N[C@H](C(=O)N2CCC3(O)CCCCC3C2)c2ccccc2)cc1 (stereo partly shown)	4.39%
Cc1ccccc1OCC(=O)OCC(=O)NCCc1ccccc1	11.8%
Cc1cccc(C)c1NC(=O)COC(=O)c1ccc(N2CCCC2)c([N+](=O)[O-])c1	3.47%
COc1cc(/C=C2/SC(=O)NC2=O)ccc1OCc1ccccc1	9.31%

Compound	hERG current change (%, negative = inhibition) at 1uM
Cc1c(Cl)cccc1NC(=O)C1=COCCO1	20.6%
CSCCC(NC(=O)COc1ccccc1)C(=O)OCc1ccc([N+](=O)[O-])cc1 (stereo not shown)	-0.839%
O=C(CCC(=O)OCc1ccc(Cl)cc1)Nc1ccccc1	-0.0175%
O=C(NC(Cc1ccccc1)C(=O)O)/C(=C/c1ccc(Br)cc1)NC(=O)c1ccc(Br)o1 (stereo not shown)	12.7%
O=C(CNC(=O)N1CC(=O)Nc2ccccc21)Nc1cc(Cl)ccc1Cl	12%
CCS(=O)(=O)N1CCCC(C(=O)N2CCc3ccccc3C2)C1 (stereo not shown)	-4.77%
CCn1c(SCC(=O)C(C)(C)C)nnc1-c1cnccn1	13.5%
COc1ccc(C(=O)CCC(=O)Nc2ccc(Cl)cc2)cc1	14%
COc1ccc(C(=O)NC(C(=O)NCC2(N3CCCCC3)CCCCC2)C(C)C)cc1 (stereo not shown)	8%
COc1ccc2[nH]c(C(=O)O)c(CCN3C(=O)c4ccc(C(=O)O)cc4C3=O)c2c1	8.94%
CCc1ccccc1NC(=O)N1CCCC(CCC(=O)N(C)CCc2ccccn2)C1 (stereo not shown)	10.8%
NS(=O)(=O)c1cccc(NC(=O)CSc2ncnc3ccccc23)c1	3.54%
COc1ccc(CCNC(=O)N2CCOCC2)cc1	8.32%
CCNC(=S)N1CCN=C1Nc1nc(C)cc(C)n1	7.53%
COc1ccccc1C(=O)NNC(=S)NC(=O)c1cccs1	19%
Cc1nc(SCC(=O)N2CCOCC2)c2c(=O)n(C)c(=O)n(C)c2n1	11.8%
CCOC(=O)N1CCN(C(=O)c2ccc3c(c2)N(Cc2cccc(Cl)c2)C(=O)c2ccccc2S3=O)CC1 (stereo not shown)	14.4%
O=c1cc(O)c(-c2ccc(Cl)c(Cl)c2)c(Cl)[nH]1	6.42%
Nc1ccc(Br)c2c1C(=O)c1ccccc1C2=O	7.59%
COc1cccc(-c2ccc3nnc(SCC(=O)N4CCOCC4)n3n2)c1	1%
Cc1ccc2nc(-c3ccccc3C)oc(=O)c2c1	15.3%
O=C(Cc1c(Cl)cccc1Cl)Nc1cccc(S(=O)(=O)N2CCOCC2)c1	-0.127%

Compound	hERG current change (%, negative = inhibition) at 1uM
CCCCN1C=C(C(=O)OC)C(c2ccccc2C(F)(F)F)C(C(=O)OC)=C1	-0.486%
O=C(COc1cccc(F)c1)Nc1nc(-c2ccncc2)cs1	11.1%
O=C(NCCCN1CCCC1=O)[C@H](CSCc1ccccc1)N1Cc2ccccc2C1=O	9.36%
Cc1cc2c(cc1C)CN(c1ccccc1)C2	12.9%
COc1ccc(N(C(=O)c2snc(C(N)=O)c2N)C(C(=O)NCc2ccc(F)cc2)c2ccc(O)cc2)cc1 (stereo not shown)	18.9%
CC(=O)c1cc(C#N)c(Oc2cccc(C(F)(F)F)c2)nc1C	15%
Cc1c(OCc2nn[nH]n2)ccc2c3c(c(=O)oc12)CCC(C)C3 (stereo not shown)	-0.451%
CS(=O)(=O)Nc1ccc(C(=O)Nc2ccccc2C(=O)NCc2ccco2)cc1	-58%
CCC1=[N+]([O-])C(C)(/C(C)=N\O)N(O)C1(C)C (stereo not shown)	11.4%
COC(=O)c1ccc(NC(=O)CSc2ccccc2)cc1	7.95%
Cc1cc(N)n(C2CCN(C)CC2)n1	6.55%
O=C(Nc1ccccc1)N1CCC(O)(c2cccc(C(F)(F)F)c2)CC1	12%
Cc1ccc(S(=O)(=O)CC(O)CN2CCCC2=O)cc1 (stereo not shown)	20.7%
CC(=O)c1ccc(NS(=O)(=O)c2cccc(C)c2)cc1	-8.69%
O=C(NC1CCCC1)C(c1ccccc1)N(C(=O)c1ccno1)c1cccnc1 (stereo not shown)	10.3%
CC(NC(=O)COC(=O)C1CC2CCCC(C1)C2=O)c1ccccc1 (stereo not shown)	3.89%
CCOC(=O)c1ccc(N2CCCCC2)c(NS(=O)(=O)c2cccc(C(F)(F)F)c2)c1	4.54%
COc1ccc(NS(=O)(=O)c2ccc(C)c(C(=O)NCC(c3cccs3)N3CCOCC3)c2)cc1 (stereo not shown)	1.44%
O=S(=O)(c1ccc2c(c1)C(=NO)c1cc(S(=O)(=O)N3CCCCC3)ccc1-2)N1CCCCC1	7.4%
O=C1CN(C(=O)CSc2ccc(-c3ccc(F)cc3)nn2)c2ccccc2N1	2.58%
Cc1ccc(OCCSc2nc3ccccc3n2CC(=O)O)cc1C	14.2%
Cc1ccc(C(C)(C)NC(=O)C2CCC(=O)N(CCCN3CCOCC3)C2)cc1 (stereo not shown)	5.85%

Compound	hERG current change (%, negative = inhibition) at 1uM
O=C(NCC(=O)N1CCC2(CC1)NCCc1[nH]cnc12)c1ccc(Br)cc1	20.8%
CC(C)N(CCNCC(O)COc1ccc(C(C)(C)c2ccccc2)cc1)C(C)C.O=C(O)C(=O)O (stereo not shown)	-4.4%
CC(C)Oc1cccc(C(=O)C2CCCN(C(=O)CCc3cnn(C)c3)C2)c1 (stereo not shown)	10.7%
c1ccc(Cc2c[nH]c3ccccc23)cc1	5.76%
COc1ccc(-c2csc(NC(=O)c3cc(C)oc3C)n2)cc1OC	-3.51%
Cc1cc(N2CCOCC2)ccc1/C=C1\NC(=O)N(CC(=O)Nc2ccccc2C)C1=O	11%
Cc1ccc(C)c(OCC(=O)N2CCN(c3ncccn3)CC2)c1	9.23%
CCOc1ccc(NC(=O)CN(C)CC(=O)NC2CCCc3ccccc32)cc1OCC (stereo not shown)	1.05%
Cc1ccc(N2C(=O)/C(=C/c3ccc(CN(CCC#N)S(C)(=O)=O)o3)C(=O)NC2=S)cc1	8.81%
Cc1ccc(NC(=O)C/C(N)=N/OC(=O)Nc2ccc(C)c(Cl)c2)cc1	8.59%
Cc1cccc(CCNc2nc3ccccc3n3nnnc23)c1	10.7%
O=C(N/N=C/c1ccccc1Br)c1ccc(CSc2cccc3cccnc23)cc1	7.71%
Cn1nc(OCC(N)=O)ccc1=O	8.48%
Nc1[nH]c(N=NC(=O)c2ccc(Cl)cc2)c2ccccc12	6.1%
CC1(C)NC(=O)N(CC(O)CN2CCCC2)C1=O (stereo not shown)	7.56%
Cc1noc(C)c1S(=O)(=O)NCc1cccc(Cl)c1	7.55%
CCOc1ccc(NC(=O)C(C)NC(=O)c2ccccc2Cl)cc1S(=O)(=O)N1CCCC1 (stereo not shown)	4.44%
CC(C)Cn1nc(NC(=O)c2ccco2)c2cc3ccccc3nc21	12.3%
CCN(c1ccc(NC(=O)CCNC(=O)c2ccco2)cc1)C(C)C	13.2%
CSc1ccc(/C=C(/NC(=O)c2ccc(C)cc2)C(=O)Nc2cccc(C)c2)cc1	6.52%
Cc1onc(-c2ccccc2)c1C(=O)NC1CCC(C)CC1 (stereo not shown)	9.61%
CCOc1ccc(OCCC(=O)N(CC)CC(=O)NCc2ccc(Cl)cc2)cc1	-46.7%
